This is an account of results in patent publication US11178870B2 (priority 2017, dated 2021).

One assay relates to Magnaporthe grisea. It is filed as in vivo. As to conditions: Table 7, Test A.
The test system of a further assay is Phytophthora infestans. It is filed as in vivo. The following applies: Table 7, Test F.
Assay [1] has as its system Colletotrichum orbiculare. As to conditions: 250 ppm sprayed (2.5 ml/pot) before inoculation; assessed 6 to 10 days after inoculation.

On to `CCn1c(-c2c(F)cccc2F)c(-c2ccsc2Cl)cc(Br)c1=O` [Compound 299], for which the “control value, Test A (blast on rice)” value with Magnaporthe grisea is reported as “H (H shows the control value more than 50%)”. In addition, the “control value, Test F (late blight on tomato)” value (from here on “control value, Test F”) in the assay on Phytophthora infestans was “L (L shows the control value of 50% or less)”. In addition, the “control value, Test H (anthracnose on cucumber)” value (shortened to “control value, Test H”) in assay [1] was “H (H shows the control value more than 50%)”.

As for `CCn1c(-c2ccc(F)cc2Cl)c(-n2cc(C)cn2)cc(Br)c1=O` [Compound 335], in the assay on Magnaporthe grisea, the “control value, Test A (blast on rice)” value is given as “H (H shows the control value more than 50%)”. In addition, the “control value, Test F” value in the assay with Phytophthora infestans was “L (L shows the control value of 50% or less)”. The “control value, Test H” value in assay [1] is recorded as “H (H shows the control value more than 50%)”.

As to `CCn1c(-c2c(F)cc(F)cc2F)c(-n2cc(F)cn2)cc(Br)c1=O` [Compound 194], the “control value, Test A (blast on rice)” value with Magnaporthe grisea is on record as “H (H shows the control value more than 50%)”. Besides, in the assay with Phytophthora infestans, the “control value, Test F” value is “L (L shows the control value of 50% or less)”. Also, the “control value, Test H” value in assay [1] is on record as “H (H shows the control value more than 50%)”.

As to `CCn1c(-c2ccccc2F)c(-n2cc(Cl)cn2)ccc1=O` [Compound 217], the “control value, Test A (blast on rice)” value in the assay on Magnaporthe grisea is given as “L (L shows the control value of 50% or less)”. The “control value, Test F” value in the assay with Phytophthora infestans is “L (L shows the control value of 50% or less)”. In addition, in assay [1], the “control value, Test H” value is on record as “L (L shows the control value of 50% or less)”.

As to `CCn1c(-c2ccccc2F)c(-n2cc(C)cn2)ccc1=O` [Compound 259], the “control value, Test A (blast on rice)” value in the assay on Magnaporthe grisea is given as “L (L shows the control value of 50% or less)”. For the same molecule, the “control value, Test F” value in the assay with Phytophthora infestans was “L (L shows the control value of 50% or less)”. The “control value, Test H” value in assay [1] is “L (L shows the control value of 50% or less)”.

On to `Cc1cnn(-c2cc(Cl)c(=O)n(CC(F)F)c2-c2ccc(F)cc2F)c1Cl` [Compound 255], for which the “control value, Test A (blast on rice)” value in the assay on Magnaporthe grisea is listed as “H (H shows the control value more than 50%)”. Also, the “control value, Test F” value with Phytophthora infestans was “L (L shows the control value of 50% or less)”. Further, the “control value, Test H” value in assay [1] is given as “H (H shows the control value more than 50%)”.

Take `O=c1ccc(-n2cc(Cl)cn2)c(-c2ccc(F)cc2Br)n1CC(F)F` [Compound 273]: the “control value, Test A (blast on rice)” value with Magnaporthe grisea is reported as “H (H shows the control value more than 50%)”. Moreover, in the assay on Phytophthora infestans, the “control value, Test F” value was “L (L shows the control value of 50% or less)”. The “control value, Test H” value in assay [1] is on record as “L (L shows the control value of 50% or less)”.

In the case of `Cc1cnn(-c2cc(Cl)c(=O)n(CC(F)F)c2-c2ccc(F)cc2Cl)c1Cl` [Compound 343], in the assay on Magnaporthe grisea, the “control value, Test A (blast on rice)” value was “H (H shows the control value more than 50%)”. Moreover, the “control value, Test F” value in the assay on Phytophthora infestans was “L (L shows the control value of 50% or less)”. In addition, in assay [1], the “control value, Test H” value was “H (H shows the control value more than 50%)”.

For the molecule `CCn1c(-c2ccc(OC)cc2F)c(-n2cc(F)cn2)cc(Br)c1=O` [Compound 302], in the assay with Magnaporthe grisea, the “control value, Test A (blast on rice)” value is “H (H shows the control value more than 50%)”. In addition, the “control value, Test F” value with Phytophthora infestans was “L (L shows the control value of 50% or less)”. Moreover, the “control value, Test H” value in assay [1] was “H (H shows the control value more than 50%)”.

For `COc1ccc(-c2c(-n3cc(Cl)cn3)cc(Cl)c(=O)n2CC(F)F)c(Cl)c1` [Compound 239], the “control value, Test A (blast on rice)” value in the assay with Magnaporthe grisea was “H (H shows the control value more than 50%)”. Moreover, the “control value, Test F” value in the assay with Phytophthora infestans is “L (L shows the control value of 50% or less)”. In assay [1], the “control value, Test H” value is reported as “H (H shows the control value more than 50%)”.
